In article PMC12040169 (PLOS Biology, 2025):
The other results are listed elsewhere or left out.

test system: T1, C. trachomatis L2/434/Bu expressing GFP (CTL2-GFP); design: species or system HeLa; C. trachomatis total inclusion area by high-content imaging, normalised to DMSO; conditions: total inclusion area; 28.5 h, 10 µM; inhibitor
T1 construct: L2/434/Bu GFP intracellular growth in HeLa cells
In short: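 After bulk GFP and resorufin fluorescence reads, cells were fixed, stained with Hoechst and imaged by high-content microscopy. Inclusion area and number (GFP) stood in for chlamydial growth, nuclei count (Hoechst) for host cell viability. MICs were derived as for the bulk readout.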

SMILES | % of control remaining
O=C(O)c1ccc(Oc2cccc([N+](=O)[O-])c2)cc1C(=O)O [CBK261179] | 89.5308
COc1ccccc1CNCc1ccccn1 [CBK262261] | 106.376
O=C1Nc2ccccc2C12NN=C(c1ccccc1)S2 (stereo not shown) [CBK017221] | 78.9961
Cc1cc(C)n(CC(=O)N2CCC(c3cc4cccnc4[nH]3)CC2)n1 [CBK284999] | 96.4041
N=C(N)NCCc1ccc(Cl)cc1 [CBK024074G] | 80.8174
CS(=O)(=O)c1ccc(-n2nnnc2CN2CCC3(CCCC3)C2)cc1 [CBK306178] | 47.1277
O=C(O)CSc1ccc(Br)c2cccc(C(=O)O)c12 [CBK126919] | 114.428
CCOc1ccc(Cc2nnc(S)n2C2CC2)cc1OCC [CBK288388] | 81.3019
O=C(CN1CCCC1)Nc1sc2c(c1C(=O)NCc1ccccc1)CCCC2 [CBK268926] | 90.7216
Cc1ccnc(NS(=O)(=O)c2ccc(NS(C)(=O)=O)cc2)n1 [CBK261552] | 108.314
Cc1nc(CC(=O)NC(Cc2ccsc2)c2cccnc2)cs1 (stereo not shown) [CBK285389] | 81.2635
N#Cc1ccc(CNC(=O)c2ccc3nc[nH]c3c2)cc1 [CBK153332] | 56.6142
CC(C)[C@H](CO)Nc1nc(-c2ccc(CCC(=O)O)cc2)cn2ccnc12 [CBK037522] | 132.112
Cc1ccc(C(=O)c2coc3ccc(OCC(=O)O)cc23)cc1 [CBK263084] | 95.7426
O=C(OCCc1cccnc1)N1CCC(C(F)(F)F)CC1 [CBK200159] | 116.523
Cn1ccnc1C(=O)N1C[C@H]2CCc3c(n[nH]c3C(F)(F)F)[C@H]2C1 [CBK283441] | 102.579
O=C(COc1ccc(S(=O)(=O)N2CCCC2)cc1Cl)Nc1ccc2c(c1)OCCO2 [CBK268559] | 90.9156
C[C@H](Nc1nc(-c2cccc3ncccc23)cnc1N)c1ccccc1 [CBK063771] | 91.492
COc1cccc(-c2nc(C3CCN(CCc4ccc(F)cc4)CC3)n3ccccc23)c1 [CBK035373] | 94.1702
CCS(=O)(=O)N1CC2CCCC(O)(c3ccc(F)cc3)C2C1 (stereo not shown) [CBK284363] | 68.5343
CC1(C)NC(=O)N(CC(O)Cn2c3ccccc3c3ccccc32)C1=O (stereo not shown) [CBK304318] | 73.1096

SMILES | % of control remaining
CCOC(=O)Cn1ncc2c3sc(C)cc3n(C)c2c1=O [CBK282388] | 105.665
CC(C)(C)N1C(=O)c2ccc(C(=O)Nc3ccccc3C(=O)O)cc2C1=O [CBK287004] | 95.4598
CCCc1[nH]nc(O)c1-c1cccc2ccccc12 [CBK075125] | 85.8537
CC(C)(C)OC(=O)N1CCN(c2cc(Cl)nc(N)n2)CC1 [CBK003505] | 16.7514
CC(=O)N1CCc2nc(NC(=O)c3cccs3)sc2C1 [CBK282680] | 111.84
O=C(c1cccs1)n1ccc(-c2ccc3c(c2)CCO3)n1 [CBK006090] | 95.3328
CC1(OCc2ccccc2)SC(NC2CCCCCC2)=NC1=O (stereo not shown) [CBK105606] | 36.4718
COc1ccc(C)cc1NC(=O)CSc1nc(C)cc(C(F)(F)F)n1 [CBK270205] | 98.0408
COCCNC(=O)N1CCN(Cc2ccccn2)CC1 [CBK304817] | 77.1868
COc1ccc(-c2nc3ccccn3c2CN2CCC(C(=O)O)CC2)cc1OC [CBK287063] | 100.464
CC(=O)NCc1cccc(-c2cc(COc3ccc4c(c3)OCO4)cnc2-c2ccc(Cl)cc2)c1 [CBK164106A] | 77.771
O=C(NCCN1CCOCC1)c1cc(-n2cnnc2)ccc1Cl [CBK268023] | 106.994
CC1CCN(C(=O)CC(NC(N)=O)c2cccc(Br)c2)CC1 (stereo not shown) [CBK305788] | 43.3206
Cc1ccn(CCNC(=O)c2cc3cccc(C)c3nc2C)n1 [CBK282645] | 124.959
CS(=O)(=O)NC1CCCCC1 [CBK012234] | 41.8592
O=C(NCC(F)(F)F)c1cnc(-c2ccc(Cl)cc2)c(-c2ccco2)c1 [CBK037468] | 86.598
Cc1cc(C)nc(NC(=O)c2cccc(Cl)c2)n1 [CBK288165] | 83.1341
c1ccc(COc2ccc3[nH]c4c(c3c2)CCNC42CCCN(CC3CC3)C2)cc1 (stereo not shown) [CBK040619] | 42.9016
CC(C)(C)c1ccc(OCc2nc(N)c3c(N)n[nH]c3n2)cc1 [CBK008565] | 88.472
Cc1nn(C)c(C)c1C(=O)Nc1sc2c(c1C#N)CCC(C)C2 (stereo not shown) [CBK304645] | 1.188
O=C(O)CCC(=O)CCC(=O)c1cccs1 [CBK264807] | 90.3496

SMILES | % of control remaining
CC(C)CCNC(=O)c1ccc(N2CCN(C(=O)c3ccccc3C(F)(F)F)CC2)nn1 [CBK153222] | 68.5729
O=C(O)CC(C(=O)Nc1ccccc1)C1CCCO1 (stereo not shown) [CBK286809] | 104.553
Cc1nn(Cc2ccc(F)cc2)c2sc(C(=O)NCc3ccc(S(N)(=O)=O)cc3)cc12 [CBK295181] | 76.6236
COc1cc(OC)nc(C(NC(=O)C2CCN(CCN3C(=O)c4ccccc4C3=O)CC2)c2ccc(F)cc2)n1 (stereo not shown) [CBK148083] | 94.8025
COc1ccc(Br)cc1/C=C/C(=O)NC(=S)Nc1cc(C(=O)O)ccc1Cl [CBK265564] | 90.1325
C=C(C)Cn1c(SCC(C)C)nnc1-c1scc(C)c1Cl [CBK200095] | 94.9195
N#Cc1ccccc1NC(=O)NCCC1=CCCCC1 [CBK044365] | 85.722
O=C(O)CCc1ccc(-c2cccs2)n1-c1ccc(C(=O)O)cc1 [CBK266016] | 98.3845
Nc1n[nH]c2nc(-c3ccccc3)c3c(c12)CCC3 [CBK288178] | 76.6741
Cc1nn(C)cc1-c1cncn1C(C)c1ccc2c(c1)CCCO2 (stereo not shown) [CBK281798] | 121.566
Cc1ccc2nc(COC(=O)c3cc(-c4ccccc4)nn3-c3ccccc3)cc(=O)n2c1 [CBK296959] | 84.0395
O=C1CCCN1c1ccc(S(=O)(=O)NCC2CC3CCC2C3)cc1 (stereo not shown) [CBK282841] | 105.14
O=C(C1=C(O)C(=O)N(CCCN2CCOCC2)C1c1cccs1)c1cccs1 (stereo not shown) [CBK264533] | 117.505
Cn1c(C(=O)NCCc2cnccn2)cc2cc(Cl)ccc21 [CBK281575] | 101.252
CCN(CC)C(=O)C1CCCN(C(=O)NCc2ccc3c(c2)OCO3)C1 (stereo not shown) [CBK156121] | 84.1592
Cc1nc(C)c(S(=O)(=O)Nc2ccccc2-c2nnnn2C(C)C)s1 [CBK305508] | 72.2914
COC(=O)c1ccc(NC(=O)c2ccccc2-c2ccccc2C(=O)O)cc1 [CBK265759] | 51.0682
Nc1c(-c2cccc(C(F)(F)F)c2)cnc2cccnc12 [CBK081187] | 106.295
O=C1CC(C(=O)Nc2ccccc2)NC(Nc2cc(Cl)cc(Cl)c2)=N1 (stereo not shown) [CBK268752] | 94.974
Cc1cc(F)c(S(N)(=O)=O)cc1NC(=O)c1ccc(C(F)(F)F)cc1 [CBK051448] | 108.365
COc1cccc(NC(=O)CSc2ccc(Cl)cc2)c1 [CBK263811] | 81.9674

SMILES | % of control remaining
NC(=O)CCNC(=O)N1CCc2ccccc2C1 [CBK155288] | 122.947
COc1ccccc1CC(=O)N1CCC(Cc2cccc(-c3cccs3)c2)(C(N)=O)CC1 [CBK285743] | 99.7588
CC(=O)N1CCC(Cn2nc(-c3ccc(F)cc3)ccc2=O)CC1 [CBK282406] | 93.0598
COc1ccccc1-c1cc(N2CCN(CC(=O)N(C)c3ccccc3)CC2)ncn1 [CBK091136] | 163.677
CN(Cc1ccccc1)c1nccnc1-c1cccnc1 [CBK037414] | 94.7903
O=C(C[C@@H]1O[C@H](CNS(=O)(=O)c2ccccc2)[C@@H](O)[C@H]1O)N1CCCC1 [CBK288909] | 110.164
CCN1CCCCC1CNC(=O)Cn1nc(C)cc1C (stereo not shown) [CBK282057] | 90.3617
O=C(Nc1ccc(O)cc1)c1cnc(-c2ccc(Cl)cc2)c(-c2cccnc2)c1 [CBK037516] | 132.118
S=c1[nH]cc(-c2ccc(Br)cc2)o1 [CBK288498] | 56.1214
CC(C)C(C(=O)O)N1C(=O)C2C3C=CC(C3)C2C1=O (stereo not shown) [CBK286535] | 84.9192
CSCCN1CCN(c2nccnc2OCCN2C(=O)CCC2=O)CC1 [CBK084301] | 87.8245
CCCOC(=O)N(O)c1ccc(Cl)c(Cl)c1 [CBK288400] | 25.1259
CCn1c2cc(C)sc2c2cnn(CC(=O)NC(C)C)c(=O)c21 [CBK284172] | 66.5855
COc1ccc(/C=N/NS(=O)(=O)c2ccc(C)cc2)cc1CSc1ccccn1 [CBK263036] | 87.2221
CS(=O)(=O)N1CCc2cc(-c3cc4ccccn4c3)ccc21 [CBK285256] | 77.23
CC(=O)N1CCN(C(=O)c2nn(-c3ccc(F)cc3)c3c2CCCCC3)CC1 [CBK295293] | 103.663
Cc1ccc(S(=O)(=O)N2CCN(C(c3ccccc3)c3ccccc3)CC2)cc1[N+](=O)[O-] [CBK293949] | 107.325
Cn1nc(NC(=O)c2cnccn2)c2c(N3CCOCC3)cccc21 [CBK306716] | 83.9281
COc1ccc([C@@H]2CCN(C(=O)Cc3ccc(F)cc3)C[C@H]2O)cc1 [CBK283709] | 87.677
